In all, about 33,000 sequences were measured (“E-score (-0.5 to 0.5)”: median about -0.017, highest 2% from about 0.3 on). The list shows a part of the results.
Target: T1, Sut1 (UniProt P53032)
T1 sequence: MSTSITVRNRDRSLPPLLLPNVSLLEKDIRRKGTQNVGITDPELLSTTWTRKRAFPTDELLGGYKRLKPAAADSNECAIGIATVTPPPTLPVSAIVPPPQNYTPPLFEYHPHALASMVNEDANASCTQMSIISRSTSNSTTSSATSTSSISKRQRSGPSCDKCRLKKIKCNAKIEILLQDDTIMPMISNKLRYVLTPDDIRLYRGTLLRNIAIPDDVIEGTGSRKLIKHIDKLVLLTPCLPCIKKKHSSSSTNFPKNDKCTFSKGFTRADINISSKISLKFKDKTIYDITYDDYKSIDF
Test: PBM E-score (8-mer binding enrichment) (E-score (-0.5 to 0.5)); higher = stronger / more preferred TF binding; most listed sequences are background and not binding sites
Conditions: protein concentration: 200 nM; construct: GST-full length
Method in brief: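 Full-length yeast transcription factors or their DNA-binding domains, GST-tagged and expressed with PURExpress, were applied at about 100-200 nM to universal all-10-mer Agilent arrays. These arrays had been made double-stranded by primer extension on fresh or once-stripped slides. Detection used fluorescent anti-GST, normalisation used masliner, and E-scores for ungapped eight-base words pooled with reverse complements came from the Universal PBM Analysis Suite.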

Sequence	PBM E-score
AATATACC	0.0977
CATGTGTC	-0.192
AAAAGTTT	0.0651
ACGAGGAG	-0.0977
AAGTGGGC	-0.18
CCCTACGA	-0.185
CGACCTCA	-0.149
ATGAACCA	0.194
ATCAGCAT	0.107
AGTCTAAT	0.0885
AGGGTCTG	-0.239
GATTGACA	0.067
CCAAAGAA	0.0984
AGACATTC	-0.0169
CCTGTGCA	-0.242
CAGACCAG	-0.0969
CCACAGGC	-0.348
GCCACAAC	-0.0446
AGTACCGA	0.0697
AGAGCGCC	0.104
GATTGACC	-0.159
ACGAGCCA	-0.197
AAGCCCGC	0.00781
GACTGATC	0.0324
AGCCATCG	-0.224

Sequence	PBM E-score
ACTCGACC	-0.175
ATAGATAA	0.272
CACTGTAG	0.132
GGCAAGGA	0.0852
CAGCACTG	-0.0653
AAGAGAGC	-0.155
CCGGTAAA	0.206
CCATAAGC	-0.00945
AAGTCGCA	0.00847
ATGGCGCC	-0.262
AGACGGCA	-0.195
TATGTCAA	0.249
CCGATCCG	0.131
AATCGCGA	-0.0432
AAGCGGGC	-0.229
ATACCTCG	0.0427
CCTATCGC	-0.115
AAATTGTT	0.218
ATATGGTC	0.103
CCACGCAC	-0.164
CTCGCTTA	-0.00317
ATCTGCCA	-0.133
ACCACACA	0.109
GGAGGGCC	-0.145
CTGACCTA	-0.0719

Sequence	PBM E-score
ATAACCTG	0.0337
ATGATTGA	-0.0204
ACAGCTGC	-0.0869
CATTGTAA	0.155
ACCGCTGC	-0.326
AACCGCAG	-0.134
ACGACTCC	0.114
CATCATGA	0.00478
AGCTGAAT	-0.0191
CATCAGTA	0.0546
CCTAACGC	-0.118
CACTGTTA	-0.164
AACCGAGG	-0.154
CGTTCCTC	-0.0465
GAGTTGTA	0.317
CCCCGCCG	-0.0513
CGACTGAG	-0.122
AGTGGAAT	0.115
CATTAACA	0.104
ATAACTTA	0.212
ATTAAACA	0.219
AATATCTA	0.152
CAGCTCCC	-0.181
GGTGACGA	-0.0887
GAACCTCC	-0.0801

Sequence	PBM E-score
CCCTAGGG	-0.186
ATGACATC	-0.0331
CACCTCAA	-0.0696
AAAGACCA	-0.0834
CTTGCCAA	-0.0266
TTCAGGAA	-0.175
ACTGAATG	0.0699
CGCCTACG	-0.208
GGAACCTA	-0.00606
ATGAACGA	0.0148
ATTAGGCG	-0.0174
AATAATCT	0.267
TGACCAAA	0.0659
GTTAGATA	0.133
CCGTAAGG	-0.196
CACATGCC	-0.099
CTTGGGGA	-0.144
ACTCGCAT	0.0869
AGAGGTGG	-0.106
AGTAAAGG	0.0979
GAGCAGAC	-0.275
CACGCGAG	-0.136
TGACAACA	0.0885
ACTAGGCC	-0.243
GGCTTTTA	0.0718

Sequence	PBM E-score
ATCGTAAC	0.17
ACGGTGGG	-0.249
CGGTACCG	0.191
AAATAAGC	0.0396
ACTTGTAA	-0.00675
CGCGAGGA	-0.153
AATATGTC	0.163
GCTGGTCC	-0.143
TCCAAGCA	0.0134
CTGTCTAA	0.103
TCTAGGCA	-0.0476
CACGGTCG	-0.252
GATTCCGC	0.0522
CGAAAAGC	-0.0121
CAGAGGAA	-0.145
CCCGTGTC	-0.113
CCATTCGC	-0.258
TGTCGTAA	-0.0629
GCCAACTA	-0.145
ATTTAGTC	0.131
CAAGGCCA	-0.227
CGTGAGGC	0.006
CACCTCAG	-0.275
AGGGATCG	-0.175
CAGATTGC	0.0252

Sequence	PBM E-score
ACCGCCCT	-0.0957
ACGACTAT	0.0374
CTCATCCC	-0.185
GGCGGGAA	-0.211
CATCGGGC	-0.169
AAAGTAAG	0.0523
TGGATACA	-0.0953
CTAAACAC	0.153
CCCGTTGA	-0.0989
GGCGGACC	0.128
GCCAGCAA	-0.13
ACGACTAA	-0.0815
ACACCCCC	-0.341
CGCCGACG	-0.043
CAGCTTCC	-0.253
GGCGCCAC	-0.251
GTGGGAAC	-0.297
CATCGATA	0.0644
CAACTGCC	-0.00509
GGCCTAAC	-0.109
GCTAGGGA	-0.308
TCAGTGAA	-0.0733
ACCTGGCG	-0.261
ATCCACCC	-0.254
CCATGATC	-0.201

Sequence	PBM E-score
CCCTAAGA	-0.229
AACCTATT	0.00732
AGGGAACG	-0.168
ACTGATTG	-0.079
CTTTTTCA	0.108
AGATATAA	0.186
ATCGTTCA	0.05
CCAAGACC	-0.261
CTAAAGAC	-0.0542
AGCTATAA	0.0595
CGGGGAAG	-0.0346
ACGTGAAG	-0.186
ATGAGCAC	-0.0678
CAGCGAGA	-0.175
CCACGTAC	-0.217
AAAAATCC	0.171
GATCCAGC	-0.22
AAAGAAAC	0.149
ATTCTGGC	-0.0493
CCACGGCC	-0.289
AACCAAAG	0.221
CTCAAATC	-0.0759
